According to publication PMC12040169 (PLOS Biology, 2025):
The other results are listed elsewhere or left out.

The molecules below were run on T1, C. trachomatis L2/434/Bu expressing GFP (CTL2-GFP). Settings: total inclusion area; 28.5 h, 10 µM; inhibitor.
T1 construct: L2/434/Bu GFP intracellular growth in HeLa cells
Set-up: species or system HeLa; C. trachomatis total inclusion area by high-content imaging, normalised to DMSO
How it was run: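 Following bulk GFP and resorufin fluorescence reads, infected cells were fixed, Hoechst-stained and imaged on a high-content platform. Inclusion total area and number per well served as growth proxies; nuclei counts indicated host viability. MICs were derived as for the fluorescence assay.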

SMILES | % of control remaining
Cc1ccc(C(=O)Nc2cccc(OC(=O)c3cc(S(=O)(=O)N4CCCCC4)ccc3Cl)c2)cc1 [CBK261368] | 51.5012
CC1CCC(N2CCN(Cc3ccccn3)CC2)CC1 (centres unmarked) [CBK263473] | 102.474
Oc1ccc(Nc2ncnc3scc(-c4ccccc4)c23)cc1 [CBK269146C] | 105.457
CCOC(=O)c1cnc2c(C)cc(Cl)cc2c1N1CCN(Cc2ccccc2)CC1 [CBK265975] | 72.46
CC(C)(C)c1ccccc1[S+]([O-])c1cc2c(N3CCNCC3)nccc2s1 (centres unmarked) [CBK200018C] | 69.2933
OCCOc1ccccc1-c1nnco1 [CBK001972] | 78.4114
Cc1ccccc1CC(=O)N1CCCC1c1n[nH]cc1-c1ccncc1 (centres unmarked) [CBK283431] | 115.392
COc1ccccc1C1CC(c2ccccc2)=NN1C(=O)CCC(=O)O (centres unmarked) [CBK287088] | 95.5875
O=C(Cc1ncc(C(F)(F)F)cc1Cl)NO [CBK007437] | 65.8571
O=C(O)C1CCN(Cc2ccc(Cl)cc2)CC1 [CBK286895] | 81.3085
O=C(CCn1ccc2ccc(F)cc21)NC[C@H]1CC[C@H](C(=O)O)CC1 [CBK286666] | 34.9983
CCCNC(=O)Cn1nc(-c2cc3c(s2)CCC3)oc1=O [CBK284713] | 92.4506
COc1ccc(CC(=O)NNC(=O)c2ccc(C(C)(C)C)cc2)cc1 [CBK261700] | 96.9357
Nc1ncc(-c2ccccc2)nc1NCc1cccnc1 [CBK063452] | 72.2304
CCCC(=O)c1ccc(S(=O)(=O)N2CCCN(Cc3c[nH]nc3-c3ccc(F)cc3)CC2)cc1 [CBK062911] | 89.8601
O=C(NCc1ccc2c(c1)OCO2)C1(c2ccccc2)CCCC1 [CBK149530] | 102.731
COc1cccc2c3c([nH]c12)C1(CCCN(CCc2ccc(F)cc2)C1)NCC3 (centres unmarked) [CBK039251] | 106.866
Cc1ccc(C(CC(=O)O)NC(=O)c2ccc(C)c(S(=O)(=O)N3CCCCC3)c2)cc1 (centres unmarked) [CBK297095] | 106.037
CN1C2CCC1CC(OC(=O)CCN1CCCC1)C2 (centres unmarked) [CBK261466] | 111.966
CN(CCCN1CCCCC1)C(=O)C1Cc2cc(Cl)ccc2O1 (centres unmarked) [CBK282162] | 92.3311
O=C(NCCN1CCOCC1)c1cccc(S(=O)(=O)N2CCCCCC2)c1 [CBK266668] | 119.079
Cc1cccn2c(CN(C)C(C)C(N)=O)c(C(=O)N3CCOCC3)nc12 (centres unmarked) [CBK306592] | 69.7142
COc1ccc(C(=O)Nn2c(SCC(=O)c3ccc(F)cc3)nc3ccccc3c2=O)cc1 [CBK266688] | 79.3204
OCc1ccccc1CN1CCOCC1 [CBK264388C] | 113.005
O=[N+]([O-])c1cc([N+](=O)[O-])c(Nc2ccncc2)c([N+](=O)[O-])c1Nc1ccncc1 [CBK278276] | 88.6969
O=C(C1CCCO1)N1CCCCCC1c1cc(-c2cccs2)on1 (centres unmarked) [CBK284340] | 84.9094
CCCCNCCn1cnc2c(N)ncnc21 [CBK057447] | 89.2064

SMILES | % of control remaining
O=C1c2ccccc2C(=O)N1CCCN1CCN(CCCN2C(=O)c3ccccc3C2=O)CC1 [CBK260963] | 94.1271
O=C(O)c1ccc(/C=N/N2CCN(Cc3ccccc3)CC2)cc1 [CBK265344] | 76.6819
Clc1cccc(-c2cncc(NCC3CCOCC3)n2)c1 [CBK037237] | 133.855
CC(Oc1ccc(Cl)cc1Cl)C(=O)Nc1ccc(OCC(=O)O)cc1 (centres unmarked) [CBK266542] | 123.192
FC(F)(F)c1cccnc1OCCCc1ccncc1 [CBK115782] | 87.3713
CC(=O)Nc1cccc(-n2nnnc2SC2CCCC2)c1 [CBK305996] | 18.6005
O=S(=O)(N1CCCCCC1)N1CCN(S(=O)(=O)N2CCCCC2)CC1 [CBK269001] | 89.7976
CCC1c2ccsc2CCN1CC(O)COCc1ccco1 (centres unmarked) [CBK303992] | 83.6304
CN(c1ccccc1)S(=O)(=O)c1cccc(NC(=O)Cc2csc(-c3ccco3)n2)c1 [CBK297792] | 106.941
Cc1cccc(-c2n[nH]c(=S)n2CCC(=O)Nc2ccc(N3CCCC3=O)c(C)c2)c1 [CBK296733] | 112.031
CC(=O)Nc1nc(OCCOc2ccccc2)cnc1-c1cnn(C)c1 [CBK145425] | 95.4755
CN1C(=O)COc2ccccc2C/C=C/C[C@H]2CNCC[C@H]21 [CBK292076] | 67.885
CCSc1ncc(Cl)c(C(=O)N(Cc2cccc(Br)c2)C2CCS(=O)(=O)C2)n1 (centres unmarked) [CBK268969] | 91.4779
CC(C)CCCC(=O)n1c(=O)n(CCc2c[nH]c3ccccc23)c2ccccc21 [CBK106513] | 86.6272
Cc1nn(C)c(N2CCNCC2)c1NC(=O)c1cccs1 [CBK050303T] | 49.0255
COCc1cccc(-c2ncc(OCC3COc4ccccc4O3)nc2N)c1 (centres unmarked) [CBK145113] | 73.1381
Cc1ccc(S(=O)(=O)NC(C)(C)CSc2nncn2C)cc1 [CBK266366] | 112.274
Cc1ccnc2nc(C(=O)OC(C)C(=O)NC3CC3)nn12 (centres unmarked) [CBK304998] | 107.292
c1ccc(OCc2nc3c4c(-c5ccccc5)c(-c5ccccc5)oc4ncn3n2)cc1 [CBK262939] | 68.6763
Cc1cc(C)cc(N(CC(=O)O)S(C)(=O)=O)c1 [CBK263775] | 85.1807
Cc1nn(Cc2ccccc2)c(C)c1C(=O)N(C)C [CBK015942] | 40.3202
Cc1c(S(=O)(=O)NCc2ccc(C(F)(F)F)c(F)c2)cnn1-c1ccccc1 [CBK062115] | 120.454
O=C(COc1ccccc1)NC(=S)Nc1cccc(-c2nc3ccccc3s2)c1 [CBK264360] | 113.434
CN1[C@@H](CCC(=O)N2CCOCC2)CNC(=O)[C@@H]2[C@H]1CCN2C1CCCCC1 [CBK289032] | 94.5613
Cc1cc(C)nc(N/C(=N/C(=O)Cc2ccccc2)N2CCC(C(N)=O)CC2)n1 [CBK263889] | 96.5395
Cc1ccc(CNC(=O)OCCN2CCN(C)CC2)n1C [CBK200287] | 93.8554
CC(C)(C)c1ccc(-c2cnc(N)c3ncccc23)cc1 [CBK067589] | 96.1862

SMILES | % of control remaining
COc1ccc(-c2ccccc2NC(=O)c2ccc(Cn3cnnn3)cc2)cc1 [CBK285866] | 103.74
Cc1ccc2sc(NC(=O)c3ccc(Cl)s3)nc2c1C [CBK291144] | 102.332
COc1ccc(/C=N/Nc2nc(OC)nc(N3CCOCC3)n2)cc1 [CBK025751] | 103.262
NC(=O)c1cc2c(OCCCN3CCN(C(c4ccccc4)c4ccccc4)CC3)cccc2[nH]1 [CBK016544] | 134.319
Oc1nc2ccc(Oc3ccc4nc(O)c(O)nc4c3)cc2nc1O [CBK293978] | 114.937
CN(C)Cc1nc2c([nH]1)c(=O)n(C)c(=O)n2C [CBK140662] | 48.0359
Cc1ccc(SCC(=O)Nc2cc([N+](=O)[O-])ccc2O)cc1 [CBK268655] | 67.0626
CS(=O)(=O)Nc1ncc(-c2ccco2)cc1C(=O)NCc1nc2ccccc2[nH]1 [CBK076468] | 73.4736
Cc1cc2c(s1)c1cnn(CC(=O)NC(C)(C)C)c(=O)c1n2C [CBK284158] | 65.7485
COc1ccc([C@@]23CCCN(C(=O)Nc4ccc(SC(F)(F)F)cc4)C[C@@H]2N(C)CC3)cc1OC [CBK056681T] | 77.3626
COC(=O)c1ccsc1NS(=O)(=O)c1cc(Br)ccc1OC [CBK039065] | 65.2241
CC(C)NC(=O)[C@H]1CN2CCC1C[C@@H]2Cn1cc(-c2cccc(O)c2)nn1 (some centres unmarked) [CBK288731] | 103.807
CCCCCOc1ccc(C2NC(=O)NC2=O)cc1 (centres unmarked) [CBK287865] | 113.441
CN(C)S(=O)(=O)NCc1ccc2c(c1)OCO2 [CBK264364] | 113.59
FC(F)(F)c1cccc(Sc2ccc(Cl)c(Cl)c2)n1 [CBK089608] | 104.884
CCN1CCN(c2ccc(NC(=O)c3cccc(OCc4ccccc4)c3)cc2)CC1 [CBK266471] | 127.712
CCC(O)CNC(=O)c1coc(COc2ccc3sc(C)nc3c2)n1 (centres unmarked) [CBK307700] | 68.6965
Cc1cn2c(=O)c3ncn([C@H]4C[C@@H](O)[C@@H](CO)O4)c3nc2[nH]1 [CBK201320] | 104.775
Cc1ccccc1OC(C)C(=O)Nc1nnc[nH]1 (centres unmarked) [CBK268605] | 86.6951
COc1c(C)[nH]cc(CN(C)CCC(=O)Nc2cccc(F)c2)c1=O [CBK304201] | 57.7727
O=C(O)/C=C/c1cccc(-c2cncc(N3CCN(Cc4ccccn4)CC3)n2)c1 [CBK066085] | 112.93
CN(C)CCNC(=O)c1cccc(-c2cnc(N)c(N3CCN(C)CC3)n2)c1 [CBK063393] | 72.3398
O=C(NCC(c1ccccc1)c1ccccc1)N1CCN(c2ccc(F)cc2)CC1 [CBK156415] | 89.9484
COc1ccc(N2C(=O)CC(Nc3ccc(Cc4nc5ccccc5[nH]4)cc3)C2=O)cc1 (centres unmarked) [CBK266480] | 107.145
CC1c2ccsc2CCN1C(=O)COc1cccc(Br)c1 (centres unmarked) [CBK305434] | 73.1901
CC(=O)Nc1ccc(CNC(=O)CN2CCCC(c3ncc[nH]3)C2)cc1 (centres unmarked) [CBK307718] | 85.9676
